Source: publication PMC5499769

Assays:
[1] = biological target: T1, Cmr (Rv1675c), member of the CRP/FNR super-family of transcription regulators (Mycobacterium tuberculosis H37Rv), P9WMH5; assay: SEC; gel filtration of Cmr; conditions not shown (Supplementary Figure S1); settings: remark: other sources report otherwise
T1 chain: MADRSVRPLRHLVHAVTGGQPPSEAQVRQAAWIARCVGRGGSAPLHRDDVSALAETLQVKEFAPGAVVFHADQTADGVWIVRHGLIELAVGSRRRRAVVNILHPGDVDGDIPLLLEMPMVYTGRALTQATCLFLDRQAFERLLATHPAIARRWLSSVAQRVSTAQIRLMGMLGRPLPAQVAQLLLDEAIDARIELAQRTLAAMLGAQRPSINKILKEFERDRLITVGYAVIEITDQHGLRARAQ

[2] = biological target: T1, Cmr (Rv1675c), member of the CRP/FNR …; assay: cross-linking; chemical cross-linking of Cmr; reagent and conditions not shown (Supplementary Figure S1); settings: remark: other sources report otherwise

B1: Cmr (Rv1675c), member of the CRP/FNR super-family of transcription regulators, P9WMH5 1-244 (natural protein)
chain: T1 chain
With B1 the stoichiometry N [1] was 2 and the stoichiometry N [2] was 2.
